The campaign covered roughly 340,000 compounds. About 6,900 (2%) were called active. Cut-off read from the data, not from the text of the source: active = inhibition above about 30%; inactive = below that, where a call was filed. The entries are a selection whose mix differs from that of the whole data set. Where no call is shown, the source filed none.

The assay concerns the target D(2) dopamine receptor (Homo sapiens) (UniProt P14416). Briefly: HTS Assay for Allosteric Antagonists of the Human D2 Dopamine Receptor: Primary Screen for Antagonists. Note: 0% is about no effect. Conditions: HEK293 TREx D2 cells, calcium flux, dopamine EC80; at 10 µM; stronger effect = higher value. In outline: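 Compounds are added to dye-loaded, induced HEK293 T-REx cells coupled to calcium release via D2; after a 3 min kinetic read an EC80 dopamine stimulus is given and fluorescence is recorded for 3 more min.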
Chain of UniProt P14416 (P14416 whole entry, looked up): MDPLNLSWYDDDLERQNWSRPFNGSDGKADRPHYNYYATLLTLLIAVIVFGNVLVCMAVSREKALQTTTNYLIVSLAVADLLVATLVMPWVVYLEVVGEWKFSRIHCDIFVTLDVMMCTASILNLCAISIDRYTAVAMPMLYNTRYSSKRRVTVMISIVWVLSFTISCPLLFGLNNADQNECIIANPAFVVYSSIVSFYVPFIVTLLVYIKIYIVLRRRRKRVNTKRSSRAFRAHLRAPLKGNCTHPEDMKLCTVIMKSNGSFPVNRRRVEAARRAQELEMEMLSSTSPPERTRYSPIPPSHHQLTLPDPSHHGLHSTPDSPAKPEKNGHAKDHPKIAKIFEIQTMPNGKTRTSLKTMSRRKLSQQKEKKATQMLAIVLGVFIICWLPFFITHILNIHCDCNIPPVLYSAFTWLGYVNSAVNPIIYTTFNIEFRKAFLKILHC
(In general: Calcium flux is commonly read through the fluorescence of an indicator in the cells.)
Take `O=C(Nc1ccc2[nH]c(=O)c(=O)[nH]c2c1)c1cccc(F)c1`: the inhibition (commonly the drop in the measured response relative to a control, in per cent) is -12%.

Consider `COC(=O)c1sc2cccc(F)c2c1S(=O)(=O)Nc1ccc(C)cc1Cl`, for which the inhibition is 4.34%.

In the case of `Cc1c(/C=C(\C#N)C(=O)Nc2cccc(Cl)c2)c2ccccc2n1Cc1ccccc1`, the inhibition is 4.05%.

With `Cc1ccc(NS(=O)(=O)c2ccc3c(c2)[C@H]2C=CC[C@H]2[C@@H](c2ccc(F)cc2)N3)cc1C`, the inhibition was -13.1%.

Consider `CCOC(=O)C1CCN(S(=O)(=O)CCNC(=O)c2ccc(F)cc2)CC1`, for which the inhibition is active: 30.3%.

With `Cn1c(=O)c2c(SCC(=O)NCc3ccc(F)cc3)nc(-c3ccccc3Cl)nc2n(C)c1=O`, the inhibition stood at 7.2%.

As for `O=S(=O)(c1ccsc1)N1CC=C(c2ccccc2)CC1`, the inhibition is active: 34.7%.

In the case of `CCOc1ccc(NC(=O)c2sc3ccccc3c2Cl)cc1`, the inhibition worked out at 17.1%.

On to `COc1ccc(-c2noc(-c3ccc(C)cc3Cl)n2)cc1OC`, for which the inhibition was -18.1%.

Consider `COc1ccc(C2CC(=O)Nc3c2c(=O)n(C)c2nc4ccccc4n32)cc1` (stereo unspecified), for which the inhibition came to 4.33%.

For `CS(=O)(=O)n1nc(-c2ccco2)nc1NCc1ccccc1Cl`, the inhibition came out at 2.3%.

Turning to `COc1ccc(C(=O)c2cn(Cc3cccc(C)c3)c3cc4c(cc3c2=O)OCO4)cc1`, the inhibition was found to be 7.47%.

Consider `COc1cc(Cl)c(C)cc1NC(=O)CSc1cc(-c2ccccc2)nc(C)n1`, for which the inhibition came to 9.81%.

For the molecule `COc1ccc(CC(=O)NCCc2csc(-c3ccc(C(F)(F)F)cc3)n2)cc1`, the inhibition stood at 4.27%.

`CCc1ccccc1NC(=O)Cn1c(=O)n(CC(=O)NCCc2ccccc2)c(=O)c2ccccc21`: the inhibition was -9.07%.

For the molecule `CCOC(=O)c1[nH]c(C)c(C(=O)NCc2cccc(OC)c2)c1C`, the inhibition is 25.8%.

As to `CCCCNC(=O)CCCn1c(=O)c2ccccc2n(Cc2c(C)cc(C)cc2C)c1=O`, the inhibition amounted to 9.93%.

Turning to `COC(=O)N1CCCc2cc(S(=O)(=O)N3CCN(c4ccccc4)CC3)ccc21`, the inhibition is -15.7%.

As for `CN(C)c1ccc(CNC(=O)c2cnc3sc(N4CCCCCC4)nn3c2=O)cc1`, the inhibition worked out at 8.18%.

As to `CCOC(=O)c1cccc(NC(=O)CC2C(=O)N(c3ccc(C)cc3)C(=O)N2Cc2cccc(OC)c2)c1` (stereo unspecified), the inhibition was found to be 13.7%.

Take `COc1cc(Cl)c(C)cc1NC(=O)CSc1nc2c(c(=O)[nH]1)CCCC2`: the inhibition was found to be 4.86%.

Take `Cn1c(=O)c([N+](=O)[O-])c(NCCc2ccccc2)c2ccccc21`: the inhibition is active: 38%.

On to `CC(C)Cc1nnc(NS(=O)(=O)Cc2ccccc2)s1`, for which the inhibition is active: 32%.

For the molecule `Cc1cccc(Cc2c(C)nc3nc(SCc4ccccc4Cl)nn3c2C)c1`, the inhibition is 0.865%.

Regarding `Cc1ccc(C)c(Cn2c(=O)n(CCC(=O)NCc3ccc4c(c3)OCO4)c(=O)c3sccc32)c1`, the inhibition was found to be 12.1%.

As to `COc1ccccc1N1CCN(C2CCN(C(=O)COc3cccc(C)c3)CC2)CC1`, the inhibition is active: 69.4%.

In the case of `O=C(c1ccc2c(c1)OCCO2)C1CCN(S(=O)(=O)c2cccc(F)c2)CC1`, the inhibition is active: 61.3%.

For the molecule `CCOc1ccc(OCC)c(NC(=O)CCc2nc3cccnc3n2Cc2cccs2)c1`, the inhibition was 1.91%.

For `COc1ccc(-c2nc(C)c(CCNC(=O)c3c(F)cccc3F)s2)cc1`, the inhibition was determined as 28%.

Consider `O=C(Nc1ccccc1O)c1cc(S(=O)(=O)N2CCCC2)ccc1Cl`, for which the inhibition was found to be 11.6%.

As to `Cc1ccc(Cl)cc1NC(=O)NCc1cccn1Cc1ccc(F)cc1`, the inhibition was -4.89%.

With `COc1ccccc1C(=O)N/N=C/C(C)=C/c1ccccc1`, the inhibition was active: 74.6%.

Regarding `Cc1ccc2nc(-c3ccc(NC(=O)c4ccccc4S(C)(=O)=O)cc3)sc2c1`, the inhibition was -2.33%.

Regarding `COc1ccc2c(c1)c1c(c(=O)n(-c3ccc(OC)c(OC)c3)c(=O)n1CC(=O)N1CCCC1)n2C`, the inhibition was -6.43%.

With `Cc1ccc(NC(=O)N2CCN(c3nnc(C)c4c(C)n(-c5ccc(Cl)cc5)nc34)CC2)c(C)c1`, the inhibition was -10.6%.

As to `Cc1ccc(CNC(=O)CSc2ncc(S(=O)(=O)c3ccc(C)c(Cl)c3)c(=O)[nH]2)cc1`, the inhibition was -9.7%.

As to `CCCNC(=O)Cn1cc(S(=O)(=O)N2CCCC2)c(S(=O)(=O)N2CCCC2)c1`, the inhibition was active: 37.5%.

Consider `COC(=O)c1ccccc1NC(=O)c1cc(C)nc2c1c(C)nn2-c1ccc(C)cc1`, for which the inhibition is 7.77%.

`COc1cc(OC)c(NC(=O)n2ncc3cc(Cl)ccc32)cc1Cl`: the inhibition is -9.09%.

Regarding `COc1ccc(OC)c(NC(=O)CSC2=Nc3ccccc3C3=NC(CC(=O)NCc4ccc(F)cc4)C(=O)N23)c1` (stereo unspecified), the inhibition was found to be 16.5%.

Consider `COc1ccc(C2CC(=O)c3c([nH]c(C(=O)OC4CCCCCC4)c3C)C2)cc1` (stereo unspecified), for which the inhibition turned out to be 21%.

As for `COc1cccc(OCC(=O)NC2CC(=O)N(c3ccc4c(c3)OCCO4)C2)c1` (stereo unspecified), the inhibition is -19%.

Consider `O=C(OCc1ccco1)c1ccc2c(c1)N(Cc1cccc(F)c1)C(=O)c1ccccc1S2`, for which the inhibition was -15%.

`COCCSc1ccccc1C(=O)NCC1CCCO1` (stereo unspecified): the inhibition is active: 34.4%.

`COc1ccc(Br)c(C(=O)Nc2cc3c(cc2N2CCCC2)n(C)c(=O)c(=O)n3C)c1`: the inhibition is -9.36%.

As to `CCOc1ccccc1NC(=O)CC(c1ccc(F)cc1)N1Cc2ccccc2C1=O` (stereo unspecified), the inhibition came to 10.6%.

Consider `Cc1ccc(-c2cc(C(=O)OCC(=O)c3ccccc3)c3cccc(Cl)c3n2)cc1`, for which the inhibition was -4.09%.

Regarding `CCC(Sc1nc2ccccc2c2nc(CCn3c(C)nc4ccccc43)nn12)C(=O)Nc1ccc(F)cc1` (stereo unspecified), the inhibition was -17%.

For `O=C(c1ccc(Cl)cc1)c1coc2ccc(O)cc12`, the inhibition is active: 34.7%.

As for `O=C(CSc1c2c(nc3ccc(Cl)cc13)CCCC2)NCc1ccccc1Cl`, the inhibition came to 19.6%.

As for `COc1ccc(CCNC(=O)c2cc(=O)c3cc(C)cc(C)c3o2)cc1OC`, the inhibition is -5.01%.

Take `COc1ccc(OCCn2nnc3sc4c(c3c2=O)CCC(C(C)(C)C)C4)cc1` (stereo unspecified): the inhibition was determined as 17%.

For `CC1CCN(c2nc3c(-c4cccc(Br)c4)nnn3c3ccccc23)CC1`, the inhibition is -14.1%.

On to `CCc1cccc(NC(=O)COC(=O)/C=C/c2cccs2)c1`, for which the inhibition was active: 31.2%.

As for `CCc1ccc(-n2nc3cc(C)c(NC(=O)c4ccccc4C)cc3n2)cc1`, the inhibition was found to be 3.48%.

Regarding `CCOc1ccc(-c2c(C)nn3c(C)c(C(=O)NCc4ccc(Cl)cc4)cnc23)cc1OCC`, the inhibition is -13.1%.

With `CCC(NC(=O)Nc1cc(Cl)ccc1OC)c1c(-n2cccc2)sc2c1CCN(C)C2` (stereo unspecified), the inhibition was -4.23%.

For the molecule `CCCCCn1c(=O)[nH]c2cc(C(=O)NCCN(C)CCCC)ccc2c1=O`, the inhibition was -13.9%.

`COc1ccc(CNC(=O)CCc2c(C)nn(-c3ccc(N4CCCCC4)nn3)c2C)cc1`: the inhibition was 0.846%.

With `COc1ccccc1N1CCN(CC(O)COc2ccc3c(c2)CCC3)CC1` (stereo unspecified), the inhibition is active: 80.2%.

As for `CCN(CC)CCCNC(=S)N1CCN(c2nc3ccccc3n2CC)CC1`, the inhibition is active: 47.7%.

The record behind these values is PubChem BioAssay AID485344 (National Center for Advancing Translational Sciences (NCATS), 2010).
